{"source": "paper PMC4336329", "about": "(PLoS ONE, 2015)", "note": "In all, about 310,000 compounds went through this assay and about 14,000 (4.5%) showed an effect of 50% or more. Effects have a minus sign here. This is one part of the list.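 Note: peak tail current of the secondary pulse compared with the same well before compound.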"}
{"biological_target": "human ether-à-go-go-related gene (hERG) potassium channel (human, UniProt Q12809)", "sequence (Q12809 whole entry, looked up)": "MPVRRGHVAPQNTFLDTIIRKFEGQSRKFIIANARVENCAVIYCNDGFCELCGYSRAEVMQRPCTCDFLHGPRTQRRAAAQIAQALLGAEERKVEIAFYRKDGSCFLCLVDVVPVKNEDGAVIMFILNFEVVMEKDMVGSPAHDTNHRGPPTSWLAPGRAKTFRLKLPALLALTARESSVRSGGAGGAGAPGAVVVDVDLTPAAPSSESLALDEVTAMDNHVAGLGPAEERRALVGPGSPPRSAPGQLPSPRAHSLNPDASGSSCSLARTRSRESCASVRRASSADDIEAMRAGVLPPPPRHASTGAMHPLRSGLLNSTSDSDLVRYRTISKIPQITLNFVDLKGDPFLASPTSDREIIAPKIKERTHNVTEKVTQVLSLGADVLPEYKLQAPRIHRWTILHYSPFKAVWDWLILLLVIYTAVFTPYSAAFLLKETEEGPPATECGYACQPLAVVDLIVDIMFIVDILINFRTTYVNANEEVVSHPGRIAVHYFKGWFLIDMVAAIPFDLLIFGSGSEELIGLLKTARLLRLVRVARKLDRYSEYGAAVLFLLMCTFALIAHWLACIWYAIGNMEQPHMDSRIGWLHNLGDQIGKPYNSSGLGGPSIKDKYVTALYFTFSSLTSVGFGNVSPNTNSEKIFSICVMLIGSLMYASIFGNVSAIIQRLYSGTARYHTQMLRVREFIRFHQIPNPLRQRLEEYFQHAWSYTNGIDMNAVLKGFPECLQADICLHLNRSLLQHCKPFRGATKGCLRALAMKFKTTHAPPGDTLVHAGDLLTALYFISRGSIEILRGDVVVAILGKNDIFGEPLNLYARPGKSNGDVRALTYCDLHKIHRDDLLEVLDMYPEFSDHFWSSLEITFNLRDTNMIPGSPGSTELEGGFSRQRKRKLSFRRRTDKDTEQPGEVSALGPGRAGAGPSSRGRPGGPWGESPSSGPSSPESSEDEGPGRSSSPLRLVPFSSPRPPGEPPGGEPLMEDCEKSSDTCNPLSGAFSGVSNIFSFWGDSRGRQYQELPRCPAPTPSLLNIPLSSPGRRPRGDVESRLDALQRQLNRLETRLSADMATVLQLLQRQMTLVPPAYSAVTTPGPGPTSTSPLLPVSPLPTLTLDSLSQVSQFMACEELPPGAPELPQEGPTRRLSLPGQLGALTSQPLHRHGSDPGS", "assay": "primary screen, population patch clamp on CHO cells stably expressing hERG", "units": {"hERG current change (%, negative = inhibition) at 10uM": "%"}}
{"smiles": "COc1ccc(OC)c(-c2cc(C(F)(F)F)c3c(n2)sc2c(O)cc(=O)[nH]c23)c1", "hERG current change (%, negative = inhibition) at 10uM": 18.9}
{"smiles": "COc1cccc(Cn2c(=O)c3ccccc3n3nc(C)cc23)c1", "hERG current change (%, negative = inhibition) at 10uM": 11.4}
{"smiles": "COCCN(CCOC)S(=O)(=O)c1ccc(C(=O)NC2CCN(Cc3ccccc3)CC2)cc1.Cl", "hERG current change (%, negative = inhibition) at 10uM": -29.1}
{"smiles": "Cc1ccc2c(c1)[C@H]1[C@H](CO2)[C@H](c2ccccc2)[C@]2(C)C(=O)NCC(=O)N12", "hERG current change (%, negative = inhibition) at 10uM": 9.76}
{"smiles": "CCCCCSc1nc2c(c(=O)[nH]c(=O)n2C)n1CCc1ccccc1", "hERG current change (%, negative = inhibition) at 10uM": -1.1}
{"smiles": "O=C(O)Cc1ccc(NC(=O)c2cccc(NC(=O)c3ccco3)c2)cc1", "hERG current change (%, negative = inhibition) at 10uM": 16}
{"smiles": "CCc1nnc(SCC(=O)N2CCc3ccccc32)n1CC", "hERG current change (%, negative = inhibition) at 10uM": 5.91}
{"smiles": "CCOc1ccc(-n2c(-c3ccccc3)nnc2-c2ccccc2)cc1", "hERG current change (%, negative = inhibition) at 10uM": -6.7}
{"smiles": "C/C(=N\\NC(=O)c1cccc(S(=O)(=O)N2CCOCC2)c1)c1ccc(C#N)cc1", "hERG current change (%, negative = inhibition) at 10uM": -52.6}
{"smiles": "C=CCOc1ccc(C(=O)Nc2ccccc2C(=O)NCc2cccnc2)cc1", "hERG current change (%, negative = inhibition) at 10uM": 4.02}
{"smiles": "OCCc1ccccc1", "hERG current change (%, negative = inhibition) at 10uM": 16.5}
{"smiles": "O=c1cc(-c2ccccc2)nc(Cc2c(Cl)cccc2Cl)[nH]1", "hERG current change (%, negative = inhibition) at 10uM": -1.98}
{"smiles": "COc1cc(-c2nc(N)n[nH]2)cc(OC)c1OC", "hERG current change (%, negative = inhibition) at 10uM": 17.7}
{"smiles": "O=C(NCc1ccccc1)N1CCN(CCO)CC1", "hERG current change (%, negative = inhibition) at 10uM": 14.8}
{"smiles": "COc1ccc(S(=O)(=O)N2CCN(C(=O)CCOc3ccccc3)CC2)cc1OC", "hERG current change (%, negative = inhibition) at 10uM": -23.6}
{"smiles": "CNS(=O)(=O)c1cccc(C(=O)NC2CCCc3ccccc32)c1", "note": "(stereo not drawn)", "hERG current change (%, negative = inhibition) at 10uM": -10.3}
{"smiles": "CC(CCc1ccccc1)NC(=O)CN1C(=O)NC2(CCCCC2C)C1=O", "note": "(stereo not drawn)", "hERG current change (%, negative = inhibition) at 10uM": -16.3}
{"smiles": "S=C1NC[C@H](CC2CCCCC2)N1CCCCC1CCCCC1", "hERG current change (%, negative = inhibition) at 10uM": 13.4}
{"smiles": "CCCCn1c(SCc2ccc(Cl)cc2)nc2c1c(=O)[nH]c(=O)n2C", "hERG current change (%, negative = inhibition) at 10uM": -4.37}
{"smiles": "Cc1cc(=O)oc2c(C)c(OCC(=O)N3CCC(C(=O)O)CC3)ccc12", "hERG current change (%, negative = inhibition) at 10uM": 5.01}
{"smiles": "COc1ccc(-c2c(C#N)c(N)nc3c2c(=O)n(C)c(=O)n3C)cc1Cl", "hERG current change (%, negative = inhibition) at 10uM": -24.5}
{"smiles": "Cc1ccc(CCNC(=O)C2CCN(S(=O)(=O)N3CCCCC3)CC2)cc1", "hERG current change (%, negative = inhibition) at 10uM": 13.3}
{"smiles": "O=C(CSc1nccn1-c1ccc(Cl)cc1)N1CCCc2ccccc21", "hERG current change (%, negative = inhibition) at 10uM": -11.7}
{"smiles": "Cc1ccccc1N1C(=O)c2ccccc2NC1c1ccncc1", "note": "(stereo not drawn)", "hERG current change (%, negative = inhibition) at 10uM": 8.69}
{"smiles": "O=C(CCN1CCCCC1)c1ccc2c(c1)OCO2", "hERG current change (%, negative = inhibition) at 10uM": -0.169}
{"smiles": "Cc1ccc(NCc2nnc3n2CCCCC3)c(C)c1", "hERG current change (%, negative = inhibition) at 10uM": 12.7}
{"smiles": "COc1ccc(C(=O)COC(=O)c2ccc3c(c2)OCO3)c(OC)c1", "hERG current change (%, negative = inhibition) at 10uM": -16.9}
{"smiles": "O=C1NC(CCc2ccccc2)C(=O)N1Cc1ccccc1Cl", "note": "(stereo not drawn)", "hERG current change (%, negative = inhibition) at 10uM": -4.41}
{"smiles": "COc1ccc(CNC(=S)NNC(=O)c2cc3ccccc3o2)cc1", "hERG current change (%, negative = inhibition) at 10uM": -43.7}
{"smiles": "COc1ccc(CCC(=O)OCC(=O)Nc2c(C)n(C)n(-c3ccccc3)c2=O)cc1", "hERG current change (%, negative = inhibition) at 10uM": -11}
{"smiles": "CCOC(=O)c1[nH]c2ccc(F)cc2c1NC(=O)c1cc(OC)c(OC)c(OC)c1", "hERG current change (%, negative = inhibition) at 10uM": 6.93}
{"smiles": "Clc1ccccc1-c1nc2ccccc2c2nncn12", "hERG current change (%, negative = inhibition) at 10uM": -6.39}
{"smiles": "CC(NC(=O)Cc1ccccc1)C(c1ccccc1)N1CCOCC1", "note": "(stereo not drawn)", "hERG current change (%, negative = inhibition) at 10uM": 30.9}
{"smiles": "COCCNC(=O)COc1ccccc1C", "hERG current change (%, negative = inhibition) at 10uM": 6.6}
{"smiles": "Cc1ccc(/C=C2\\C(=O)NC(=O)N(CCc3ccc(F)cc3)C2=O)s1", "hERG current change (%, negative = inhibition) at 10uM": 19.5}
{"smiles": "O=C(CNC(=O)Cc1cccc2ccccc12)NCc1ccccc1F", "hERG current change (%, negative = inhibition) at 10uM": 14.8}
{"smiles": "CCN(CC)C(=O)C(Oc1ccc(C)nc1[N+](=O)[O-])c1ccccc1", "note": "(stereo not drawn)", "hERG current change (%, negative = inhibition) at 10uM": 19.3}
{"smiles": "COc1ccccc1-n1cnc2cc(NC(=O)c3ccco3)ccc21", "hERG current change (%, negative = inhibition) at 10uM": -7.1}
{"smiles": "O=C(NCc1ccc(Cl)cc1)c1ccc(CNc2c(N3CCCC3)c(=O)c2=O)cc1", "hERG current change (%, negative = inhibition) at 10uM": 12.9}
{"smiles": "c1ccc2c(c1)nnn1c3ccccc3nc21", "hERG current change (%, negative = inhibition) at 10uM": -6.29}
{"smiles": "Cc1cccc(C)c1NC(=O)CN(C)C(=O)c1ccc(N2C(=O)CCC2=O)cc1", "hERG current change (%, negative = inhibition) at 10uM": -10.8}
{"smiles": "CCC(C)NC(=O)c1cn(-c2cccc(OC)c2)c(=O)c2ccccc12", "note": "(stereo not drawn)", "hERG current change (%, negative = inhibition) at 10uM": 3.66}
{"smiles": "Cc1c(N)ccc(-n2nc3ccccc3n2)c1C", "hERG current change (%, negative = inhibition) at 10uM": -0.131}
{"smiles": "CC1(C)CC(=O)C(N=Nc2ccc(F)cc2)=C(O)C1", "hERG current change (%, negative = inhibition) at 10uM": -4.21}
{"smiles": "CCNC(=O)NC(=O)C(C)Sc1ccc2c(c1)OCCO2", "note": "(stereo not drawn)", "hERG current change (%, negative = inhibition) at 10uM": 1.37}
{"smiles": "COCCn1c(C)cc(C(=O)COc2ncnc3ccc(Br)cc23)c1C", "hERG current change (%, negative = inhibition) at 10uM": 3.3}
{"smiles": "CN(C)CCCN(C(=O)/C=C/c1cccs1)c1nc2ccc(F)cc2s1.Cl", "hERG current change (%, negative = inhibition) at 10uM": -41}
{"smiles": "CC(=O)c1c(N2CCN(C(=O)C3CCCO3)CC2)nc(=S)n(-c2ccccc2)c1C", "note": "(stereo not drawn)", "hERG current change (%, negative = inhibition) at 10uM": 1.07}
{"smiles": "CCOc1ccc(Br)cc1C(=O)N/N=C/c1ccc([N+](=O)[O-])cc1", "hERG current change (%, negative = inhibition) at 10uM": 9.42}
{"smiles": "Cc1ccc(S(=O)(=O)N2CCN(CC(=O)Nc3ccnn3C3CCCC3)CC2)cc1", "hERG current change (%, negative = inhibition) at 10uM": -7.38}
{"smiles": "COc1ccc(C(=O)N/C(=C\\c2ccccc2)C(=O)NCCCn2ccnc2)cc1", "hERG current change (%, negative = inhibition) at 10uM": -55.8}
{"smiles": "CCOC(=O)c1sc2nc(CC(=O)OC)nc(N(C)CCc3ccccn3)c2c1C", "hERG current change (%, negative = inhibition) at 10uM": -37.8}
{"smiles": "NC(=O)c1cc([N+](=O)[O-])ccc1NCc1ccc(F)cc1", "hERG current change (%, negative = inhibition) at 10uM": -12.5}
{"smiles": "Cc1onc(-c2ccccc2)c1C(=O)N1CCC(CO)(Cc2ccccc2)CC1", "hERG current change (%, negative = inhibition) at 10uM": 12.9}
{"smiles": "CCC1CCCCN1CCCNC(=O)c1csc2c1CCCCC2", "note": "(stereo not drawn)", "hERG current change (%, negative = inhibition) at 10uM": -56.7}
{"smiles": "CCCC(=O)N1CCN(c2nc3c(OC)ccc(Cl)c3s2)CC1", "hERG current change (%, negative = inhibition) at 10uM": -29.2}
{"smiles": "Cc1cccc(C)c1NC(=O)NC1(C(=O)NCCN2CCOCC2)CCCCC1", "hERG current change (%, negative = inhibition) at 10uM": 15.6}
